From PubChem BioAssay (NCATS)
Several values for one entry are separate records, joined by “and”; a condition that tells them apart may be missing. Identical values can stand only once. Inconclusive results, whose numbers are uncertain, are shown with a selection of clear calls. Potencies of inconclusive entries are doubtful fits and often do not repeat. Activity calls are given as the source filed them. Calls come from the whole dose curve; as a rule, active = well fitted cell-killing curve with a large enough effect; inconclusive = small, poorly fitted or top-dose-only effect, or effect the other way; inactive = no such curve, though single readings can be large or run the other way.

Test: Viability qHTS for spleen associated tyrosine kinase inhibitor (SYKi) naive MV4-11 cells (AID 1963823); note: nearly all actives have a fitted effect of over 40% in size
Details: MV4-11 AML viability, CellTiter-Glo luminescence, 72 h; viability (% of control): at 45 µM (top of the series)
From the text: Department of Medicine, Hematology/Oncology
University Hospital Frankfurt, Germany.
Trials have shown promising clinical activity of the selective SYK inhibitor entospletinib in patients with high expressing HOXA9/MEIS1 acute leukemias. As the development of resistance mechanisms is a common problem in the use of targeted drugs, we performed a chemical library screen to identify drug sensitivities in SYK inhibitor resistant AML cells. […] Glucocorticoids are potent immunosuppressants which work in part by inhibiting the transcription of cytokine genes.
Described herein is a viability screen to look for activity in the SYK inhibitor naive cell line against four NCATS compound libraries (MIPE 5.0, NPC, NPACT, and Kinase) totaling 11372 compounds. Active hits were reacquired for confirmation and further secondary assay testing.
SEQUENCE No. (e.g., 1, 2, 3, etc.); […] (e.g., Cells, Incubation, Reagent, etc.); VALUE; DESCRIPTION.
1; Media; 2uL; white, solid-bottom Corning assay plate.
2; Compounds; 23nL; Echo acoustic dispenser.
3; Cell; 5uL; 500 cells per well.
4: Incubation; 72hr; 37 C, 5% CO2, 95% humidity.
5; Reagent; 3uL; CellTiter-Glo reagent (Promega).
6; Incubation; 10min; room temperature.
7; Detection; Luminescence; ViewLux plate reader (PerkinElmer).
NOTES (numbers refer to Sequence numbers above
1. Quantitative high-throughput screening (qHTS) of small molecule compounds was conducted on naive SYKi MV4-11 cell line.
2. Twenty-three nanoliter of small molecule compounds were added to each assay plates using the Echo acoustic dispenser (Beckman Coulter).
3. Cells were seeded into the assay plates at a final density of 500 cells in 5uL of media per well using the Multi-drop Combi dispenser.
4. Plates were covered with stainless steel gasketed lids and incubated for 72 hours at standard cell culture conditions.
5. Viability was assessed by adding 3uL of CellTiter-Glo detection reagent (Promega).
6. Plates were covered with gasket lids and incubated for 10 minutes at room temperature.
7. Luminescence was measured on a ViewLux plate reader (PerkinElmer).
Potency is the fitted concentration of half-maximal effect; tags give direction and shape of the fitted curve.

Compound | viability (% of control) | Potency
CC(COc1ccccc1)NC(C)C(O)c1ccc(O)cc1 (stereo not given) | inactive: 55.4% | 
CCCCCCCc1ccc(CCc2cccc(O)c2C(=O)O)cc1 |  | inconclusive: 18.6 µM [cytotoxic, partial curve]
CC(C)N(C[C@H]1O[C@@H](n2cnc3c(N)ncnc32)[C@H](O)[C@@H]1O)C1CC(CCc2nc3ccc(C(C)(C)C)cc3[nH]2)C1 (stereo not given in full) |  | inconclusive: 7.31 µM [cytotoxic, partial curve] and inconclusive: 4.17 µM [cytotoxic, partial curve]
CCCc1nc(C(C)(C)O)c(C(=O)O)n1Cc1ccc(-c2ccccc2-c2nn[nH]n2)cc1 |  | inconclusive: 0.001 µM
CN1C2CCC1CC(OC(=O)C(CO)c1ccccc1)C2 (stereo not given) | inactive: 91.3% | 
COc1cc2ncnc(Nc3ccc(F)c(Cl)c3)c2cc1O |  | inconclusive: 6.51 µM [cytotoxic, partial curve]
C/C1=C\[C@H]2OC(=O)[C@@H](C)[C@@H]2CC/C(C(=O)O)=C/CC1 | inactive: 60% | 
COc1ccc(-c2cc(C(O)C3CCCCN3)c3ccccc3n2)cc1 (stereo not given) |  | active: 0.525 µM
Cc1ccc(C)c(NC(=O)[C@@H]2CCCN2S(=O)(=O)c2cccc3cccnc23)c1 |  | inconclusive: 9.2 µM [cytotoxic, partial curve]
CN1CCN(C2=Nc3cc(F)ccc3Cc3ccccc32)CC1 |  | inconclusive: 11.9 µM [cytotoxic, partial curve, poor fit]
O=C(Nc1ccc(OC(F)(F)F)cc1)c1sccc1NCc1ccnc2ccccc12 |  | active: 5.25 µM and active: 5.17 µM
NCCCC(N)CC(=O)NCC1NC(=O)C(CO)NC(=O)C(N)CNC(=O)C(C2CCN=C(N)N2)NC(=O)C(=CNC(N)=O)NC1=O (stereo not given) | inactive: 84.9% [at 0.588 µM] | 
CN1CCC(=C2c3ccccc3C=Cc3ccccc32)CC1 |  | inconclusive: 18.8 µM [cytotoxic, partial curve] and inconclusive: 16.6 µM [cytotoxic, partial curve]
CNC(=O)Cn1cc(-c2ccc3c(c2)C(F)CC32NC(=O)N(CC(=O)N(Cc3ccc(F)cc3)[C@@H](C)C(F)(F)F)C2=O)cn1 (stereo not given in full) |  | inconclusive: 52.5 nM [cytotoxic, full curve] and inconclusive: 16.6 µM [cytotoxic, partial curve]
Oc1ccc(C2CNCCc3c2cc(O)c(O)c3Cl)cc1 (stereo not given) |  | inconclusive: 16.8 µM [cytotoxic, single point] and inconclusive: 20.9 µM [cytotoxic, partial curve]
Cc1cccc(/C=N/Nc2cc(N3CCOCC3)nc(OCCc3ccccn3)n2)c1 |  | active: 1.32 µM
O=C(CCO[C@@H]1O[C@H](CO)[C@@H](O)[C@H](O)[C@H]1O)c1ccc(O)cc1 |  | inconclusive: 11.4 µM [cytotoxic, single point]
C[C@@H]1CCNC(=O)c2cc3ccc(C(=O)Nc4nc5ccccc5n4CCCN(C)C)cc3n21 |  | active: 0.662 µM
COC(=O)[C@@H]1CC2=CC(=O)CC[C@]2(C)[C@@]23O[C@@H]2C[C@@]2(C)[C@@H](CC[C@@]24CCC(=O)O4)[C@H]13 |  | inactive
CCNC(=O)N1CCCN(c2ccc(C(=O)NCCc3ccc(Cl)cc3Cl)cc2NC(=O)c2cccc(Cl)c2)CC1 |  | inconclusive: 9.2 µM [cytotoxic, partial curve, poor fit]

Compound | viability (% of control) | Potency
O=C(CCCl)NCCc1ccccc1 | inactive: 90.8% | 
O=C(NN1CCCCC1)c1nn(-c2ccc(Cl)cc2Cl)c(-c2ccc(C#Cc3ccc(C(F)(F)F)cc3)s2)c1CNS(=O)(=O)N1CCCC1 | inactive: 91.2% | 
O=C(Nc1cccc(Nc2ncc(Br)c(NCCc3cnc[nH]3)n2)c1)N1CCCC1 |  | inconclusive: 0.0934 µM [cytotoxic, full curve]
C=C1CCC2[C@](C)(CCC[C@@]2(C)C=O)[C@H]1CC/C(C)=C/CO (stereo not given in full) |  | active: 20.6 µM
CCOC(=O)C1=C[C@@H](OC(CC)CC)[C@H](NC(C)=O)[C@@H](N)C1 |  | inconclusive: 33.2 µM [cytotoxic, partial curve, poor fit]
CC(=O)c1cnc2ccc(-c3cc(Cl)c(O)c(Cl)c3)nc2c1NC1CCC(CN(C)C)CC1 (stereo not given) |  | active: 4.7 nM and active: 0.8 nM
CC(C)=CC[C@H]1O[C@]2(O)C([C@H]3CCC4[C@@]5(C)CC[C@H](O[C@@H]6O[C@H](CO)[C@H](O)[C@H](O[C@@H]7O[C@H](CO)[C@@H](O)[C@H](O)[C@H]7O)[C@H]6O[C@@H]6O[C@@H](C)[C@H](O)[C@@H](O)[C@H]6O)C(C)(C)C5CC[C@@]4(C)[C@]3(C)[C@H]2O)[C@@]1(C)O (stereo not given in full) | inactive: 84.2% [at 9.25 µM] | 
O=C(Nc1nnc(-c2ccco2)o1)c1cc(-c2ccccc2)nc2ccccc12 |  | active: 13.2 µM
Cc1cccc2c1NC(=O)C2(c1ccc(O)cc1)c1ccc(O)cc1 |  | inconclusive: 0.517 µM [cytotoxic, full curve]
C[C@@H]1O[C@@H](O[C@H]2[C@H](OC(=O)[C@]34CCC(C)(C)C[C@H]3C3=CCC5[C@@]6(C)C[C@H](O)[C@H](O[C@@H]7O[C@H](CO)[C@@H](O)[C@H](O)[C@H]7O)[C@@](C)(CO)C6[C@H](O)C[C@@]5(C)[C@]3(C)CC4)OC[C@H](O)[C@@H]2O)[C@H](O)[C@H](O)[C@H]1O[C@@H]1OC[C@@H](O)[C@H](O[C@@H]2OC[C@](O)(CO)[C@H]2O)[C@H]1O (stereo not given in full) | inactive: 85.2% [at 9.25 µM] | 
CC(=O)c1c(C)cc(O[C@@H]2O[C@H](CO)[C@@H](O)[C@H](O)[C@H]2O)cc1O | inactive: 73.9% | 
CN(C)CC/C=C1\c2ccccc2COc2ccccc21 | inactive: 87.1% | 
CC1(C)CCCC2(C)C3=C(C(=O)OC3O)C(O)CC12 (stereo not given) |  | inconclusive: 32.6 µM [cytotoxic, single point]
NC(=O)c1ncn(C2O[C@H](CO)[C@@H](O)[C@H]2O)c1N (stereo not given in full) | inactive: 89.1% | 
CC1(C)CCCC2(C)C1C(OC(=O)/C=C/C=C/C=O)C=C1COC(=O)C12O (stereo not given) |  | active: 5.02 µM
O=c1cc(CO)occ1O | inactive: 85.7% | 
CC1(C(=O)O)CCCC2(C)C3CCC4CC3(CCC12)CC4(O)CO (stereo not given) | inactive: 78% | 
O=C(O)Cn1c(C(=O)Nc2nc(-c3ccccc3Cl)cs2)cc2ccccc21 | inactive: 75.5% | 
CCC(C)/C=C(C)/C=C/C1=CC2=C(Cl)C(=O)C(C)(O)C(=O)C2(O)C(OC)O1 (stereo not given) |  | inconclusive: 8.93 µM [cytotoxic, single point]
CC1(C)O[C@@H]2C[C@H]3[C@@H]4C[C@H](F)C5=CC(=O)CC[C@]5(C)[C@H]4[C@@H](O)C[C@]3(C)[C@]2(C(=O)CO)O1 |  | inconclusive: 10.6 µM [cytotoxic, partial curve, poor fit]
